# Source: the supplement of paper PMC4166925
# ± gives the standard deviation of the averaged measurements. The full ranking holds about 33,000 sequences; the median of “E-score (dimensionless, -0.5 to 0.5)” is about -0.046, and the highest 2% start at about 0.36. This is one part of the list.
# Test system: T1, SpTbr T-box DNA-binding domain (GST fusion)
# T1 sequence: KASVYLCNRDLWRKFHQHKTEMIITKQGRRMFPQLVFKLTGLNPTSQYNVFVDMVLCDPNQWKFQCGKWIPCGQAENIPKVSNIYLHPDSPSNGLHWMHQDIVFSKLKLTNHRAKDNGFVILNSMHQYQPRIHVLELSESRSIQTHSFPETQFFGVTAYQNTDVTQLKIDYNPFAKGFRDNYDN
# Experiment: PBM E-score of 8-mer (E-score (dimensionless, -0.5 to 0.5)); Tbr is Tbrain of the sea star Patiria miniata (Pm) or the sea urchin Strongylocentrotus purpuratus (Sp); higher = stronger binding preference; most listed sequences are background and not binding sites
# Settings: the construct has about 5 more residues each side
# Protocol: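 Universal protein-binding microarray (Agilent AMADID 016060, 60-bp probes with a 35-bp variable region) incubated with 200 nM GST-fused Strongylocentrotus purpuratus Tbr T-box DNA-binding domain (residues 362-554) in PBS pH 7.5. Scored for every ungapped 8-mer (given with its reverse complement) as E-score (range -0.5 to 0.5; >0.45 counts as bound) and Z-score of median probe intensity. Two replicate arrays (datasets 1 and 2).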
# 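Further: protein at 200 nM in PBS on universal double-stranded arrays.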
row,Sequence,PBM E-score of 8-mer
1,ATATACGG,-0.0598 ± 0.014
2,CATCTAGG,0.00735 ± 0.031
3,CTTCGTAA,0.00265 ± 0.034
4,CCTAATAA,-0.102 ± 0.037
5,CCTCAGGA,-0.158 ± 0.025
6,AAAACCCA,-0.103 ± 0.011
7,GCTCGCAA,0.224 ± 0.021
8,ACTGGGTG,0.0609 ± 0.0055
9,ACTCTTTC,0.0551 ± 0.015
10,ATCTAGAA,-0.151 ± 0.049
11,CCTTCTGA,-0.142 ± 0.036
12,ACTCGATG,-0.0556 ± 0.081
13,CAGGCCTG,-0.346 ± 0.071
14,CGCAGGGA,-0.15 ± 0.0056
15,AGTGTAGA,0.0751 ± 0.037
16,TACCCCTA,-0.231 ± 0.028
17,ATATCAAA,-0.163 ± 0.015
18,TAGATCTA,-0.0421 ± 0.046
19,AGCCGTTC,0.0442 ± 0.006
20,CGCAAGCG,-0.00658 ± 0.068
21,GGTCGGAC,-0.274 ± 0.021
22,CTGCATTC,-0.122 ± 0.0089
23,CAACACAC,0.207 ± 0.031
24,AAGTCGTC,0.155 ± 0.0024

row,Sequence,PBM E-score of 8-mer
1,GACAGAGC,-0.298 ± 0.022
2,AACTGGGA,-0.154 ± 0.013
3,GCTACCCA,-0.172 ± 0.08
4,AAAAAGGG,-0.284 ± 0.051
5,AGGGAAAA,-0.354 ± 0.005
6,AGAGGGTC,-0.177 ± 0.0093
7,GCTGGCCA,-0.16 ± 0.0033
8,CCTACTTA,0.134 ± 0.0065
9,ACAGACAA,0.0566 ± 0.0091
10,AGACGGGC,-0.0517 ± 0.011
11,AAGTCTCT,-0.0296 ± 0.026
12,ATCTACAG,-0.159 ± 0.026
13,CAATGTGA,0.262 ± 0.026
14,GAGCTCAC,0.0227 ± 0.09
15,ACGGATTC,-0.0948 ± 0.14
16,TATGCGGA,-0.318 ± 0.027
17,CGCACGCA,0.216 ± 0.023
18,CAGGGACA,-0.0686 ± 0.058
19,GTATTTCA,-0.18 ± 0.08
20,AGCTCGGA,-0.0281 ± 0.0059
21,CACCCCAC,0.293 ± 0.038
22,AGTGTTGG,0.3684 ± 7.1e-06
23,GAGGCGCC,0.21 ± 0.027
24,CGTTGTTA,0.142 ± 0.034

row,Sequence,PBM E-score of 8-mer
1,CGAGTACG,0.0963 ± 0.021
2,CAACTACG,-0.0286 ± 0.048
3,TAGGAAGA,-0.271 ± 0.03
4,AAATATCG,-0.0103 ± 0.087
5,CGCTGGGA,0.061 ± 0.053
6,ACCAAGGT,0.0533 ± 0.032
7,TCTGTAAA,0.00502 ± 0.046
8,ACCATCCT,-0.18 ± 0.029
9,GTCTCCTA,-0.236 ± 0.0029
10,CTGAGGCC,-0.225 ± 0.026
11,TGCTAGAA,0.0549 ± 0.044
12,ACAAAGAA,-0.0922 ± 0.08
13,GAATAAGC,-0.0679 ± 0.006
14,GATCGGAA,0.0351 ± 0.036
15,ATTAACTG,0.0795 ± 0.052
16,GATAATGC,0.0396 ± 0.012
17,CAAACCCC,-0.239 ± 0.018
18,CGTGACGC,0.192 ± 0.033
19,AATCAGCT,-0.261 ± 0.033
20,AACAGCGT,-0.0214 ± 0.058
21,CGAATAAA,0.117 ± 0.05
22,CGAGGCAA,-0.0874 ± 0.02
23,TCACTCGA,0.0732 ± 0.022
24,AGGCACAG,0.0232 ± 0.016

row,Sequence,PBM E-score of 8-mer
1,ATCGGTAA,-0.00135 ± 0.021
2,AGCCTTGA,-0.142 ± 0.019
3,AGTTGCTA,0.239 ± 0.042
4,CAGACACA,0.254 ± 0.026
5,CTAGGGTC,-0.232 ± 0.069
6,CACGGGCG,-0.00855 ± 0.048
7,ACAAAAAT,-0.153 ± 0.032
8,AACACCAT,0.377 ± 0.021
9,AGAAGTGA,0.289 ± 0.014
10,ATCTTAGC,0.0587 ± 0.0046
11,AACGCAAA,0.0563 ± 0.092
12,ATAACGCG,0.24 ± 0.012
13,GCATTAAA,-0.213 ± 0.011
14,CGGCGTAC,-0.177 ± 0.071
15,GATAGCGC,0.2908 ± 0.0026
16,AGATGGCC,-0.308 ± 0.011
17,ACTACTCG,-0.0412 ± 0.033
18,CCGAAGGC,-0.0425 ± 0.036
19,GGATGAAA,-0.2302 ± 0.0016
20,CATGGAAC,-0.212 ± 0.0075
21,CTTCTAGC,0.0222 ± 0.015
22,CCACTGCC,-0.0765 ± 0.0097
